{"source": "PubChem BioAssay AID463173", "about": "(ICCB-Longwood Screening Facility, Harvard Medical School, 2010)", "note": "Among all 52,000 compounds or so, about 4,300 (8.3%) were called active. Cut-off read from the data, not from the text of the source: active = survival mostly below about 52% (no sharp cut-off); inactive = mostly above about 56%. The list shows a part of the results.", "data": [{"test_system": "DeltatarO mutant", "assay": "S. aureus survival, RN4220 and DeltatarO strains – OD600, teichoic acid synthesis inhibitors, primary screen (AID 463173)", "details": "S. aureus RN4220 wild type/DeltatarO growth, OD600, 18 h, hits give low values, screened at 18.75 µg/mL (by protocol)", "values": [{"smiles": "Cc1nnc(SCc2cc(=O)n3c(C)cccc3n2)s1", "survival": "inactive: 91%"}, {"smiles": "O=C(C1CCC(CNS(=O)(=O)c2ccc(Br)s2)CC1)N1CCN(c2ccccc2)CC1", "note": "(stereo unspecified)", "survival": "inactive: 78%"}, {"smiles": "CCOc1ccc(Cn2c(=O)oc3ccccc32)cc1", "survival": "inactive: 117%"}, {"smiles": "Cc1ccc(-c2noc(COc3ccc(Br)c(C)c3)n2)cc1", "survival": "inactive: 130%"}, {"smiles": "COc1ccc(CNC(=O)C2=C(C(=O)O)CCCC2)cc1", "survival": "inactive: 77%"}, {"smiles": "COc1cccc(N2CC(NC(=O)c3ccc(S(=O)(=O)N4CCCC4)cc3)CC2=O)c1", "note": "(stereo unspecified)", "survival": "inactive: 75%"}, {"smiles": "O=C(NC1CCCC1)c1c[nH]c2ccc(S(=O)(=O)Nc3cccc(C(F)(F)F)c3)cc2c1=O", "survival": "active: 16%"}, {"smiles": "CCN(c1ccccc1)S(=O)(=O)c1nnc(NC(=O)COc2ccc(OC)cc2)s1", "survival": "inactive: 55%"}, {"smiles": "CCOC(=O)c1c(C)oc2nc(C)nc(NCC3CCN(Cc4ccc(Cl)cc4)CC3)c12", "survival": "inactive: 94%"}, {"smiles": "CC(=O)OCC#CCSc1nnc(-c2cccc(Br)c2)o1", "survival": "inactive: 46%"}, {"smiles": "COc1ccc(-c2nc3n(n2)C(c2ccc(OC)cc2)C(C(=O)Nc2cccnc2)=C(C)N3)cc1", "note": "(stereo unspecified)", "survival": "inactive: 89%"}, {"smiles": "CCOC(=O)c1[nH]c(C)c(CCC(=O)N2CCN(c3ccccc3)CC2)c1C", "survival": "inactive: 86%"}, {"smiles": "COC(=O)C1C(=O)C2=C(CC1C)Nc1ccccc1NC2c1ccc(N(C)C)cc1", "note": "(stereo unspecified)", "survival": "inactive: 79%"}, {"smiles": "OC1(c2ccccc2F)CCN(CCN2CCCCC2)CC1", "survival": "inactive: 99%"}, {"smiles": "Cc1ccc(-n2nnc3c(sc4nc(C)c(C)cc43)c2=O)cc1Cl", "survival": "inactive: 86%"}, {"smiles": "COc1ccc(CSc2nc3ncccc3[nH]2)cc1", "survival": "inactive: 87%"}, {"smiles": "Cc1ccc(C)c(NC(=O)C2CCCN(S(=O)(=O)c3c(C)noc3/C=C/N(C)C)C2)c1", "note": "(stereo unspecified)", "survival": "inactive: 111%"}, {"smiles": "Cn1c(=O)oc2cc(S(=O)(=O)CCC(=O)NCc3ccccc3)ccc21", "survival": "inactive: 77%"}, {"smiles": "CCOc1ccc(N(C)S(=O)(=O)c2ccc3c(c2)C(C)(C)C(=O)N3C)cc1", "survival": "inactive: 83%"}, {"smiles": "CCOc1ccc(N2CC(c3nc(-c4cc(OC)c(OC)c(OC)c4)no3)CC2=O)cc1", "note": "(stereo unspecified)", "survival": "inactive: 102%"}, {"smiles": "Cc1nn(CC(=O)NCCc2ccc(Cl)cc2)c(=O)c2cc3cc(F)ccc3n12", "survival": "inactive: 76%"}, {"smiles": "CCn1c(SCc2ccccc2)nnc1-c1cccnc1", "survival": "inactive: 75%"}, {"smiles": "Cc1ccc(NC(=O)CCc2nnc3n(CC(C)C)c(=O)c4ccccc4n23)cc1C", "survival": "inactive: 92%"}, {"smiles": "Cc1ccc(-n2nc3c(N4CCC(C(=O)N5CCCCC5)CC4)nnc(C)c3c2C)cc1", "survival": "inactive: 85%"}, {"smiles": "Cc1cc(N2CCCC(O)C2)nc(C)n1", "note": "(stereo unspecified)", "survival": "inactive: 100%"}, {"smiles": "COc1ccc(CNC(=O)Cn2nc(C)c3nn(-c4ccc(Cl)cc4)c(C)c3c2=O)cc1", "survival": "inactive: 95%"}, {"smiles": "CCCN1C(=O)C(Cc2nc3ccccc3c(=O)n2CC)c2ccccc21", "note": "(stereo unspecified)", "survival": "inactive: 84%"}, {"smiles": "CCCc1cc(N2CCN(c3cc(Cl)ccc3C)CC2)n2cnnc2n1", "survival": "active: 30%"}, {"smiles": "COc1ccc(-c2cc(NCc3ccc(F)cc3)n3cnnc3n2)cc1", "survival": "inactive: 61%"}, {"smiles": "Cc1c(Cl)cccc1N=C1NC(=O)CS1", "survival": "inactive: 99%"}, {"smiles": "Cc1cc(OCC(=O)NCC2(N3CCN(C)CC3)CCCCC2)cc(C)c1Cl", "survival": "inactive: 69%"}, {"smiles": "O=C(Cc1ccccc1)Nc1sc2c(c1C(=O)Nc1ccccc1Cl)CCC2", "survival": "active: 34%"}, {"smiles": "COc1ccc(NC(=O)Cn2c(=O)n(-c3ccccc3)c(=O)c3c4c(sc32)CCCC4)cc1", "survival": "inactive: 98%"}, {"smiles": "c1ccc2c(c1)oc1c(NC3CCCC3)ncnc12", "survival": "inactive: 101%"}, {"smiles": "Cc1cc(C)cc(Nc2cc(-c3ccccc3)nc(C)n2)c1", "survival": "active: 8%"}, {"smiles": "COC(=O)c1c(NC(=O)c2cc3nc(-c4ccc(OC)cc4)cc(C(F)(F)F)n3n2)sc2c1CCCC2", "survival": "inactive: 78%"}, {"smiles": "CCCOc1ccc(N2CC(C(=O)Nc3cccc(Cl)c3Cl)CC2=O)cc1", "note": "(stereo unspecified)", "survival": "inactive: 145%"}, {"smiles": "Cc1ccc2oc(C(=O)Nc3c(C(=O)Nc4ccccc4)oc4ccccc34)cc(=O)c2c1", "survival": "inactive: 73%"}, {"smiles": "O=S(=O)(c1ccccc1)c1nnn2c1nc(NCc1cccs1)c1sccc12", "survival": "inactive: 87%"}, {"smiles": "Cc1ccc(NC(=O)CCn2cccn2)cc1Cl", "survival": "inactive: 87%"}, {"smiles": "CCOc1ccc(CCNC(=O)CN2C(=O)COc3ccc(S(=O)(=O)N4CCC(C)CC4)cc32)cc1", "survival": "inactive: 56%"}, {"smiles": "C=CCn1c(SC)nc2c1c(=O)[nH]c(=O)n2C", "survival": "inactive: 94%"}, {"smiles": "O=C1NC(=O)C2C3c4ccccc4C(c4ccccc43)C12", "note": "(stereo unspecified)", "survival": "inactive: 98%"}, {"smiles": "COc1ccc(-n2nnnc2SCSc2nnnn2-c2ccc(OC)cc2)cc1", "survival": "inactive: 79%"}, {"smiles": "CN(C(=O)c1cc(-c2ccccc2)on1)C1CCCCC1", "survival": "inactive: 91%"}, {"smiles": "CCOc1ccccc1NC(=O)C(Cc1ccccc1)NS(=O)(=O)c1ccc2c(c1)oc(=O)n2C", "note": "(stereo unspecified)", "survival": "inactive: 97%"}]}]}
